Assay results reported in article PMC3930858.
No constants are given. Whether binding was seen depends on the method and setting. For some of these results: In cells and extracts the contact can be indirect. Some entries that bind do so weakly or less than the wild type.

T1: SnRK1.2/AKIN11 (Arabidopsis thaliana) (UniProt P92958)
T1 sequence: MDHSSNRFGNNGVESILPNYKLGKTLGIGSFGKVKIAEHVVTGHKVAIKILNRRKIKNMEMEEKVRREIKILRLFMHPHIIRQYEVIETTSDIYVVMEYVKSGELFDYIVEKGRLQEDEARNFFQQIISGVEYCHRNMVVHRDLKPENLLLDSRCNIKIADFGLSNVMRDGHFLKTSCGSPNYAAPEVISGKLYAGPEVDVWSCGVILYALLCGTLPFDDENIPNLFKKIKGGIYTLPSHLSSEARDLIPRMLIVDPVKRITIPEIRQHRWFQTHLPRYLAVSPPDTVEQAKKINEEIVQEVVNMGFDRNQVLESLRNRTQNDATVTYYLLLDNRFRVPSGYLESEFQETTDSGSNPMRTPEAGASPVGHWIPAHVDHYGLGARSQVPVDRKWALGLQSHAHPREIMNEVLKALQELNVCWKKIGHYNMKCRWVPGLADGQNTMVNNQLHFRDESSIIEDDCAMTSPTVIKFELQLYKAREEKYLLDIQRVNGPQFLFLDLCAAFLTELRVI

T2: SnRK1.1/AKIN10 (Arabidopsis thaliana) (UniProt Q38997)
T2 sequence: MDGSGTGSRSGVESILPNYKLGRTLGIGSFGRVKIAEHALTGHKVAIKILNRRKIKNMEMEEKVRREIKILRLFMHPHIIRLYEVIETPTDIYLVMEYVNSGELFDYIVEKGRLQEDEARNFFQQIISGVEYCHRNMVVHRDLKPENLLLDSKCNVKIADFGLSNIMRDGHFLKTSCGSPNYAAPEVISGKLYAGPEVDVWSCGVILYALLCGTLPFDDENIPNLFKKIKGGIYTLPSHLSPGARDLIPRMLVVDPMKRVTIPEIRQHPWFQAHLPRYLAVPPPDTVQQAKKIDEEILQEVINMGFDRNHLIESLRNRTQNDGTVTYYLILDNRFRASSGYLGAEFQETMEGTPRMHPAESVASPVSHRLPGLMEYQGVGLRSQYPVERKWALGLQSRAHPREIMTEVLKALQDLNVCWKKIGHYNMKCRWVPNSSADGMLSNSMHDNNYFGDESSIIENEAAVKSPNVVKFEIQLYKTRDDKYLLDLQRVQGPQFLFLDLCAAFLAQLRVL

T3: SnRK1.1/AKIN10 (Arabidopsis thaliana), Q38997
T3 chain: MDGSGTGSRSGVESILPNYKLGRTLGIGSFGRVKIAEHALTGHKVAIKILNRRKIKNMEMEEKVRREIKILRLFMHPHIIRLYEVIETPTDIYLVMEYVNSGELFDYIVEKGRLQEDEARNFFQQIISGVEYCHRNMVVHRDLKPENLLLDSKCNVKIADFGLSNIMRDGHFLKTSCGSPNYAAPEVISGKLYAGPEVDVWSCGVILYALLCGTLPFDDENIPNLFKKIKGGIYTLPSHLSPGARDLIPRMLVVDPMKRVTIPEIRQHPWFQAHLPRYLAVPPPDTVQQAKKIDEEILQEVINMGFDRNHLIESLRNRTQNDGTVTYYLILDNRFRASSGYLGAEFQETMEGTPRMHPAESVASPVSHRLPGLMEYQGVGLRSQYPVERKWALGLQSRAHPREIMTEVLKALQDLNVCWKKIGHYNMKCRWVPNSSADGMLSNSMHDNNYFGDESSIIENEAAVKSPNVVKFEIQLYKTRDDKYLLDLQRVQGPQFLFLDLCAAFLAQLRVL

T4: AKIN10-Venus^N (Arabidopsis thaliana) (UniProt Q38997)
T4 sequence: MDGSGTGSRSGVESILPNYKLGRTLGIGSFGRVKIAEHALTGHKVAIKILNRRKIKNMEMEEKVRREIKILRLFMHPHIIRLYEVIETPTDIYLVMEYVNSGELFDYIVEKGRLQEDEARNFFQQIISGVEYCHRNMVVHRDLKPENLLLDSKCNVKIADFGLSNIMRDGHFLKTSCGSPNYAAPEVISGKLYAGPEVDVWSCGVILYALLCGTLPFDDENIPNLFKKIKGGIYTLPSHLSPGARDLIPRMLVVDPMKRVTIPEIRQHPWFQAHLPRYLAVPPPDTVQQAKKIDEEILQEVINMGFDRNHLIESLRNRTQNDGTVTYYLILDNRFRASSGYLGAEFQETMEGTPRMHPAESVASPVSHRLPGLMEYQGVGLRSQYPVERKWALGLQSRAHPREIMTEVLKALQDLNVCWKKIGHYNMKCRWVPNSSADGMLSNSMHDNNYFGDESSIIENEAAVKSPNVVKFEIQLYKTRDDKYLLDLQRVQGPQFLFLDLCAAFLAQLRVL

T5: AKIN11-Venus^N (Arabidopsis thaliana) (UniProt P92958)
T5 sequence: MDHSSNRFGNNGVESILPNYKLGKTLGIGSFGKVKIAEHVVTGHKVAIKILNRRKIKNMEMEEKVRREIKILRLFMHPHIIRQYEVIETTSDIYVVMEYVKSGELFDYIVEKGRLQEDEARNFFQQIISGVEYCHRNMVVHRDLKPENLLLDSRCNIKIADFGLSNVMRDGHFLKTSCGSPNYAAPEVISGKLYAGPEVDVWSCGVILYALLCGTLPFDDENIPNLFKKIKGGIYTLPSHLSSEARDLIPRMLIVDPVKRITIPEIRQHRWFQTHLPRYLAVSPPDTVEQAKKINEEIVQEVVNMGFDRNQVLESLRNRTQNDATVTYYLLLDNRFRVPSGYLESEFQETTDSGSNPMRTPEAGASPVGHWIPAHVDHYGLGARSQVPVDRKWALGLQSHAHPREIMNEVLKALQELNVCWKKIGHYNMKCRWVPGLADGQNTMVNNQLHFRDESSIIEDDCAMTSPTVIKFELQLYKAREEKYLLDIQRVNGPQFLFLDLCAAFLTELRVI


What was measured:
[1] = target: T1, SnRK1.2/AKIN11 (Arabidopsis thaliana); assay: two-hybrid; direct test by cotransformation of GAL4 DNA-binding domain and activation domain plasmids in yeast strain Y190; growth on medium lacking Leu, Trp and His with 25 mM 3-amino-triazole, 30°C, 3 days; lacZ activity
[2] = target: T2, SnRK1.1/AKIN10 (Arabidopsis thaliana); assay: as above
[3] = target: T3, SnRK1.1/AKIN10 (Arabidopsis thaliana), …; assay: as above; settings: remark: other sources report otherwise
[4] = target: T4, AKIN10-Venus^N (Arabidopsis thaliana); assay: split reporter; BiFC with Venus^N and Venus^C fusions under the CaMV35S promoter, transient expression in N. benthamiana leaves, confocal microscopy 48 h post infiltration
[5] = target: T5, AKIN11-Venus^N (Arabidopsis thaliana); assay: as above

binding [1]	binding [2]	Binder	further results
binds	binds	DUF581-9 (protein, UniProt O80506 1-93) MASYYSGFLGCEEPHFLESCSLCRKHLGLNSDIFMYRGDKAFCSNECREEQIESDEAKERKWKKSSRSLRKNSSETKESAAGNTVRTGTLVVA	–
no binding	–	DUF581-9C47S (protein, UniProt O80506 1-93) MASYYSGFLGCEEPHFLESCSLCRKHLGLNSDIFMYRGDKAFCSNESREEQIESDEAKERKWKKSSRSLRKNSSETKESAAGNTVRTGTLVVA	–
–	–	DUF581-9C47S, O80506 1-93 (protein) MASYYSGFLGCEEPHFLESCSLCRKHLGLNSDIFMYRGDKAFCSNESREEQIESDEAKERKWKKSSRSLRKNSSETKESAAGNTVRTGTLVVA	binding [3]: no binding
binds	binds	DUF581-18 (protein, UniProt Q9LV75 1-113) MVLGKRHGSLIKRTTSMKMITLDTPTIYDASQPSDHLTFHQHPHNPMVVMASNYDDFLKTCSLCNRSLCHHRDIYMYRGNNAFCSLECREKQIKLDEKKAKTGFVTSKKPIRI	–
–	–	DUF581-18-Venus^C (protein, UniProt Q9LV75 1-113) MVLGKRHGSLIKRTTSMKMITLDTPTIYDASQPSDHLTFHQHPHNPMVVMASNYDDFLKTCSLCNRSLCHHRDIYMYRGNNAFCSLECREKQIKLDEKKAKTGFVTSKKPIRI	binding [4]: binds; binding [5]: binds
binds	binds	DUF581-19 (protein, UniProt Q8LGS1 1-263) MLRNKPRAAVTTKKQTSLLMADQPPPPKPNTCHCSPSLFSSPKFRFFTSKMMMTPFDSDFSLVSPTSILEANPSIFSSKNPKPVSYFEPTIPNPQRFHSPDVFGLADLVKDGDSNRDHSRKPVNKMVLFGSKLRVQIPSSADFGTKTGIRYPPCQLSPCVQTKVLAVSEIDQTEDYTRVISHGPNPTITHIFDNSVFVEATPCSVPLPQPAMETKSTESFLSRCFTCKKNLDQKQDIYIYRGEKGFCSSECRYQEMLLDQMET	–
